Measured values from the supplement of paper PMC3334620.
The full ranking holds about 33,000 sequences; the median of “E-score (-0.5 to 0.5)” is about -0.01, and the highest 2% start at about 0.26. The list shows a part of the results.

Target: Ste12 (UniProt P13574)
Assay: PBM E-score (8-mer binding enrichment) (E-score (-0.5 to 0.5)); higher = stronger / more preferred TF binding; most listed sequences are background and not binding sites
Details: protein concentration: 200 nM; construct: GST-DNA-binding domain
In short: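 For each ungapped eight-base word taken together with its reverse complement, the Universal PBM Analysis Suite assigned an E-score. Binding data came from GST-tagged yeast transcription factors, applied at about 100-200 nM, on universal all-10-mer Agilent arrays made double-stranded by primer extension. Fluorescent anti-GST marked bound protein, and scans were normalised with masliner.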

| Sequence | PBM E-score |
| --- | --- |
| ATGCGCCC | 0.00532 |
| ATCGTTTA | 0.106 |
| ACAATTCC | 0.104 |
| ACAACGAA | 0.00716 |
| ACTCGCGA | 0.155 |
| GACGCGCC | -0.0274 |
| AGCAGCAG | -0.0392 |
| CGACCACA | -0.156 |
| CGCCGAAG | -0.106 |
| ACCACTGG | -0.13 |
| GCCCAGGC | -0.0234 |
| ACTGCAAT | 0.109 |
| CTAACGCC | 0.089 |
| ATTCTACA | 0.145 |
| AAATTGGG | 0.0547 |
| AGAGGGCC | -0.168 |
| TACTTAGA | -0.109 |
| ACCAGGCA | -0.113 |
| ACATTGGG | 0.00627 |
| GTGGGATA | 0.152 |
| ATCAGTGG | -0.0578 |
| AGGGTTAT | 0.0845 |
| CCATGAGA | 0.164 |
| GCTATGTA | -0.101 |
| CAAAATGC | -0.0253 |

| Sequence | PBM E-score |
| --- | --- |
| AGCCTGTC | -0.181 |
| AATATGGC | -0.00863 |
| AGTGCACA | 0.071 |
| AGAGAGCC | -0.0937 |
| TAACCTGA | 0.127 |
| ATGTTTTA | 0.374 |
| AGCATCTG | -0.159 |
| CAGTAACA | -0.0198 |
| CCAAGCCC | -0.153 |
| GTTGCGGA | 0.00365 |
| TTGATCAA | 0.261 |
| ACGGACGA | 0.0822 |
| CCGCAGTC | -0.176 |
| CCTTACAG | -0.17 |
| TACAACCA | 0.112 |
| CTTTTATA | 0.0308 |
| ACGAATCC | 0.113 |
| AGCTCTCC | -0.131 |
| ACCGATCC | -0.192 |
| CTGCACGA | 0.0398 |
| AAACGTTT | 0.283 |
| AGCTCGTG | -0.00111 |
| GCCTCCAC | -0.223 |
| CATACCGC | 0.0232 |
| CCTTTAGC | -0.163 |

| Sequence | PBM E-score |
| --- | --- |
| AATGGGCG | 0.0848 |
| AAGAGTTA | -0.0507 |
| CGAGCCTA | -0.172 |
| AAACAGTA | 0.171 |
| GCATATGA | 0.0387 |
| GACACAAC | 0.0341 |
| GTCACCAA | -0.111 |
| AATGGGGA | -0.0112 |
| TGGGGGAA | -0.0866 |
| CCACGGTA | -0.0295 |
| ACGCGCTG | 0.166 |
| CCTCGATC | 0.143 |
| CGATACGC | 0.0684 |
| TCCTAGAA | 0.0487 |
| ATAGGGCC | -0.217 |
| TCCGGGCA | 0.0238 |
| CCGAGTTC | 0.012 |
| AAGCGCGC | 0.0933 |
| ACGTGCTG | 0.0228 |
| GAAACCAA | 0.355 |
| ACCCGTCC | -0.0354 |
| CTGTGCCC | -0.106 |
| AGTGTTCA | 0.0929 |
| GAGGAGAC | -0.28 |
| CTTCATGA | 0.0149 |

| Sequence | PBM E-score |
| --- | --- |
| ATATGACC | 0.015 |
| AGCAATCA | 0.0437 |
| GAACGCTC | -0.0903 |
| AGCCCGCC | -0.0164 |
| CTCTGTAC | -0.0997 |
| ATCAGAAT | 0.191 |
| CTACGTTC | -0.172 |
| ACGCACCC | -0.118 |
| CAGCGAGC | 0.112 |
| ATAGGAAT | 0.0269 |
| AGGCAGGG | -0.0634 |
| AGGAGAGG | -0.234 |
| GAAATACC | -0.0287 |
| GAAGCCCC | -0.225 |
| CAGCATGG | -0.0809 |
| CAAGAAGC | -0.0436 |
| AGGCCTCA | -0.326 |
| AGTAAACA | 0.0888 |
| GTCGTCTA | -0.0926 |
| GCAACTAA | -0.0101 |
| CGTTTCGC | 0.296 |
| TCCCTCGA | 0.0339 |
| CGAACGCG | 0.0317 |
| GTGCGCAA | -0.0274 |
| ACCTTTGG | -0.223 |

| Sequence | PBM E-score |
| --- | --- |
| GAGTTAGC | -0.0742 |
| AGGGGACT | -0.0958 |
| CCTTCATA | -0.0144 |
| GCCCCGCC | 0.33 |
| ACTAACGA | -0.0183 |
| CGTCGTGA | -0.1 |
| CCGACGTA | -0.124 |
| GTACTAAA | 0.0446 |
| CCTCCTAC | 0.0107 |
| GTCTCCAA | 0.0569 |
| CGATAGAC | -0.0818 |
| ATTTTTGG | 0.183 |
| ACTAGTGC | -0.182 |
| CACACCCA | 0.0803 |
| ACACTAAC | -0.0194 |
| GGAGGGAC | -0.00419 |
| CAGGACTG | -0.0991 |
| CTTACTAC | 0.0578 |
| ATCGCCCC | -0.0404 |
| CTTACAGC | 0.0013 |
| CCACTCAG | -0.0273 |
| CAACGGAG | -0.152 |
| CCCCGGAC | 0.0497 |
| CACCCGGA | 0.186 |
| CGTAGACC | -0.15 |

| Sequence | PBM E-score |
| --- | --- |
| TAAAGGAA | 0.0666 |
| CGCGTACA | 0.00106 |
| AGTGCGTC | -0.322 |
| GACCATAA | 0.107 |
| CTATGGTA | -0.121 |
| ACAATATC | 0.116 |
| CGGTCGGA | -0.00578 |
| ACAGTTAC | 0.163 |
| AACCACGC | -0.143 |
| AACCAAGC | 0.0495 |
| ATGCTGTC | -0.216 |
| ATGCGTGA | -0.0382 |
| GCTCACGA | -0.151 |
| GATTGTCC | -0.095 |
| CCGCCGGA | 0.105 |
| AGTATAGC | -0.022 |
| GATAATCC | -0.129 |
| AGAGCTGC | -0.363 |
| CTATTGAC | -0.0696 |
| CGTAAGAA | 0.0645 |
| AAGGTAGC | -0.237 |
| CCTGCACG | -0.0209 |
| ATGCTACA | -0.0613 |
| ACAGGTGG | -0.0436 |
| CGCCCACA | 0.197 |

| Sequence | PBM E-score |
| --- | --- |
| ATAAGCCA | 0.148 |
| ATAGGGCG | -0.087 |
| AGCGTTCG | 0.0142 |
| CCCCCTCC | -0.121 |
| GTGAGGCA | -0.0727 |
| CTAAGGAA | -0.0429 |
| ACACATGG | 0.0687 |
| ACCATATG | 0.105 |
| TAGCCCCA | -0.0697 |
| CAGAAGAC | -0.0636 |
| CGCGTGCC | -0.0311 |
| AGGTCCAG | -0.121 |
| AAACTCGA | 0.203 |
| CTGCTCGA | -0.167 |
| GCGTTTAC | -0.0566 |
| CGCCGTAA | 0.0117 |
| CTTTGCTA | 0.162 |
| TCCCCTCA | 0.211 |
| GGAGAAGA | -0.0437 |
| AAGTCCCT | -0.124 |
| GTAATGAA | -0.129 |
| AAACCATT | 0.0969 |
